# Source: paper PMC9556525
# Target: full-length coilin fused to CFP or YFP (wild type) (human), P38432
# Test: FRET or BRET; acceptor photobleaching FRET between CFP (donor) and YFP (acceptor) fusions co-expressed in HeLa cells, fixed in 2% paraformaldehyde; apparent FRET efficiency; Fig. 4c, d
# Conditions: remark: other sources report otherwise
binder,measurement,value
full-length coilin fused to CFP or YFP (wild type) (natural protein) MAASETVRLRLQFDYPPPATPHCTAFWLLVDLNRCRVVTDLISLIRQRFGFSSGAFLGLYLEGGLLPPAESARLVRDNDCLRVKLEERGVAENSVVISNGDINLSLRKAKKRAFQLEEGEETEPDCKYSKKHWKSRENNNNNEKVLDLEPKAVTDQTVSKKNKRKNKATCGTVGDDNEEAKRKSPKKKEKCEYKKKAKNPKSPKVQAVKDWANQRCSSPKGSARNSLVKAKRKGSVSVCSKESPSSSSESESCDESISDGPSKVTLEARNSSEKLPTELSKEEPSTKNTTADKLAIKLGFSLTPSKGKTSGTTSSSSDSSAESDDQCLMSSSTPECAAGFLKTVGLFAGRGRPGPGLSSQT[sequence of about 200 residues not given],apparent FRET efficiency,20%
